Among all 310,000 compounds or so, about 14,000 (4.5%) showed an effect of 50% or more. The effect is printed as a negative number. This is one part of the list.
Molecular target: human ether-à-go-go-related gene (hERG) potassium channel (human, UniProt Q12809)
Test: primary screen, population patch clamp on CHO cells stably expressing hERG
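Note: peak tail current of the secondary pulse compared with the same well before compound.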

Sequence of human ether-à-go-go-related gene (hERG) potassium channel (Q12809 whole entry, looked up): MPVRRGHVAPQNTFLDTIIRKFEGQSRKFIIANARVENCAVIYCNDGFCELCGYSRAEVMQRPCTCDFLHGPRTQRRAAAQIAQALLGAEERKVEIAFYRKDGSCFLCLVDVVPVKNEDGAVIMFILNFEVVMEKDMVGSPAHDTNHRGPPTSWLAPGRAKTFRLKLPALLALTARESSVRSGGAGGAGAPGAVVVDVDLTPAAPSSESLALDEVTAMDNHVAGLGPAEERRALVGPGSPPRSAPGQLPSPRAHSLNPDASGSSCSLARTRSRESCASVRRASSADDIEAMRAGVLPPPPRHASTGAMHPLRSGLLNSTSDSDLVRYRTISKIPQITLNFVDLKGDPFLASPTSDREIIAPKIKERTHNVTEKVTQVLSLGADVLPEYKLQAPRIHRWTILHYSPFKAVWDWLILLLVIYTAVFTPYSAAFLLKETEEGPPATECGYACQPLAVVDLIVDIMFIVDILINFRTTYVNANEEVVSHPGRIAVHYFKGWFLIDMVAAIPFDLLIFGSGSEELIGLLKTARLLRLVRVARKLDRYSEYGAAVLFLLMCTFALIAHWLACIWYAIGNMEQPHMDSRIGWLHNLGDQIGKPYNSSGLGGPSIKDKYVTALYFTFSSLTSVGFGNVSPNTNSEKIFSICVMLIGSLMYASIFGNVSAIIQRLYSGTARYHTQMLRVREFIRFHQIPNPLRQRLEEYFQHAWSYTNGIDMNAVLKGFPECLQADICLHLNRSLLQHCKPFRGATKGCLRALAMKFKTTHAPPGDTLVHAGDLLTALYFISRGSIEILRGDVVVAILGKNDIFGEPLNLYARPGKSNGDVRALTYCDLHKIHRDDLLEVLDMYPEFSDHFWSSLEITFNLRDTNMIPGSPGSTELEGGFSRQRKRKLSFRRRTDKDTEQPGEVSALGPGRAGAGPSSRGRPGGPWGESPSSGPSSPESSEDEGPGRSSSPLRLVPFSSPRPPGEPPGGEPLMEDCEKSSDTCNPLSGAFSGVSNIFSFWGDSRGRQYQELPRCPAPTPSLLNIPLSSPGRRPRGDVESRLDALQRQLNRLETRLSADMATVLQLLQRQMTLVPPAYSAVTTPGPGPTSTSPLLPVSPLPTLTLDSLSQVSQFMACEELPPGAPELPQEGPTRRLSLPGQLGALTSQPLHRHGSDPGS

| SMILES | hERG current change (%, negative = inhibition) at 10uM |
| --- | --- |
| COc1ccc(/C(O)=C(\C#N)c2nc3ccccc3n2C)cc1OC | 9.59% |
| CCOC(=O)N1CCC(c2cc(=O)n3[nH]cc(C(=O)OC)c3n2)CC1 | 9.34% |
| O=C(CN1CCOCC1)Nc1ccccc1Sc1ccc(Cl)cc1 | -44.1% |
| COc1ccc(CCN(C)C(=O)CCCN2C(=O)c3cccc4cccc(c34)C2=O)cc1OC | -35.5% |
| Cc1nc2ccc(NC(=O)NCCO)cc2s1 | 5.11% |
| O=C(CSC1=NCCS1)NC(NC(=O)CSC1=NCCS1)c1ccccc1 | 18.6% |
| COc1ccc(OC)c(C(=O)NC(CC(N)=O)c2ccc(N3CCN(c4ccc(F)cc4)CC3)c([N+](=O)[O-])c2)c1 (stereo not shown) | 9.75% |
| Cc1cccc(OCCCN2CCOCC2)c1 | 13.5% |
| Cc1cc(C)nc(Oc2ccc(Br)cc2Br)n1 | 19.1% |
| COC(=O)c1ccc(C(=O)OCCCc2nc3ccc(N)cc3[nH]2)cc1 | -8.74% |
| COc1ccccc1CNc1ncccc1[N+](=O)[O-] | -1.85% |
| O=C(NC1CCCCC1)c1cc(-c2ccc(F)cc2)on1 | 22.1% |
| CC1C(=O)N2CCCc3cc(NC(=O)COc4ccc(Cl)cc4)cc1c32 (stereo not shown) | -40.2% |
| CCOC(=O)N1CCN(c2ccccc2OC)CC1 | 15.2% |
| Cn1c(=O)c2c(nc(CN3CCN(c4ccc(F)cc4)CC3)n2CCN2CCOCC2)n(C)c1=O | -42.3% |
| CC[N+]1(CC(O)COC2CC(C)CC(C)(C)C2)CCOCC1.[I-] (stereo not shown) | 21.9% |
| CCOc1ccc(N/C(SCc2cccc([N+](=O)[O-])c2)=C(/C#N)C(N)=O)cc1 | -59.1% |
| Cc1ccc(NC(=S)NNC(=S)Nc2cccc(C(F)(F)F)c2)cc1 | 18.6% |
| Fc1ccc(CSc2nnc(-c3cnccn3)n2Cc2ccco2)cc1 | -52.2% |
| O=C(Nc1nccs1)C1CCCN(S(=O)(=O)c2cccnc2)C1 (stereo not shown) | 1.78% |
| COc1ccc(N2CC(NC(=O)NCC(C)C)CC2=O)cc1 (stereo not shown) | 1.59% |
| O=C(C1CC(=O)N(c2ccccc2)C1)N1CCN(C2=NS(=O)(=O)c3ccccc32)CC1 (stereo not shown) | 5.68% |

| SMILES | hERG current change (%, negative = inhibition) at 10uM |
| --- | --- |
| COc1cccc(C(=O)NCCN2CCN(c3ccc(Cl)cc3)CC2)c1 | -49.8% |
| CSCCC(NS(=O)(=O)c1cccs1)C(=O)NCc1ccccc1 (stereo not shown) | 2.35% |
| O=C(NCCN1CCOCC1)c1cc(-c2ccco2)on1 | -4.41% |
| CCOC(=O)[C@@H]1[C@H]2COc3ccccc3[C@H]2N2C(=O)N(c3ccc(Cl)cc3)C(=O)[C@@]12C | 3.7% |
| CC(C)(C)c1nnc(NC(=O)NS(=O)(=O)c2ccccc2)s1 | 19.7% |
| COc1ccc([N+](=O)[O-])c(OC)c1C(=O)Nc1ccc(F)cc1F | -0.148% |
| CC(=O)COc1coc(CN2CCN(c3ccc(F)cc3)CC2)cc1=O | 15.5% |
| Cc1ccc(C)c(NC(=O)Nc2ccc3c(c2)OCO3)c1 | 8.8% |
| CCOCCCNCc1cccc(OCc2ccc(F)cc2)c1 | -50.1% |
| Cc1nn(Cc2cccc(C(=O)N3CCCC(C)C3)c2)c(C)c1[N+](=O)[O-] (stereo not shown) | -17% |
| Cc1[nH]c2ccccc2c1/C=N/NC(=O)c1cc(C(C)(C)C)[nH]n1 | -20.6% |
| NC(N)=N/N=C/c1ccc(N(c2ccccc2)c2ccccc2)cc1.O=[N+]([O-])O | -50.8% |
| Cc1ccc(-c2csc(N)n2)s1 | 8.83% |
| CCOC(=O)[C@H]1[C@H]2COc3ccc(Br)cc3[C@H]2N2C(=O)CNC(=O)[C@@]12C | 6.03% |
| O=C(CCc1nc2ccccc2c(=O)[nH]1)N1CCN(S(=O)(=O)c2ccc(F)cc2)CC1 | -27.6% |
| COc1ccc2oc(=O)c(-c3csc(Nc4cccc(O)c4)n3)cc2c1 | 25.8% |
| O=C(CSc1nc2ccccc2[nH]1)N/N=C/C=C/c1ccccc1[N+](=O)[O-] | -26.6% |
| Cn1c(Cl)cnc1C(O)c1ccccc1 (stereo not shown) | -0.22% |
| CCOCCCNC(=O)CCC(=O)NNc1nc2ccccc2c2nc(C)nn12 | -0.277% |
| CCOC(=O)Cc1csc(NC(=S)NC(=O)c2ccc(C)cc2)n1 | 17.3% |
| Nc1ccc2nc(-c3cccc(-c4nc5ccc(N)cc5[nH]4)c3)[nH]c2c1 | 5.5% |
